Reference: article PMC9911399, “Two distinct binding modes provide the RNA-binding protein RbFox with extraordinary sequence specificity”
Residue numbers refer to the chain shown, from its start. The list shows a part of the results.

B1: CGACAAG (DNA:RNA)
RNA: GGGAGACCGGAAUUCAGAUUGUCCCGACAAGUUAAAUCCCGUCGUAGCCACCA
DNA 1: CAATCTGAATTCCGGTCTCCC
DNA 2: TGGTGGCTACGACGGGATT
B2: UUUCAGG (DNA:RNA)
RNA: B1 RNA with C25U, G26U, A27U, A30G
DNA 1: CAATCTGAATTCCGGTCTCCC
DNA 2: TGGTGGCTACGACGGGATT
B3: CAAUUGU (DNA:RNA)
RNA: B1 RNA with G26A, C28U, A29U, A30G, G31U
DNA 1: CAATCTGAATTCCGGTCTCCC
DNA 2: TGGTGGCTACGACGGGATT
B4: AAAUCUC (DNA:RNA)
RNA: B1 RNA with C25A, G26A, C28U, A29C, A30U, G31C
DNA 1: CAATCTGAATTCCGGTCTCCC
DNA 2: TGGTGGCTACGACGGGATT
B5: CUACUGA (DNA:RNA)
RNA: B1 RNA with G26U, A29U, A30G, G31A
DNA 1: CAATCTGAATTCCGGTCTCCC
DNA 2: TGGTGGCTACGACGGGATT
B6: GCCUGUA (DNA:RNA)
RNA: GGGAGACCGGAAUUCAGAUUGUCCGCCUGUAUUAAAUCCCGUCGUAGCCACCA
DNA 1: CAATCTGAATTCCGGTCTCCC
DNA 2: TGGTGGCTACGACGGGATT
B7: UCGGACA (DNA:RNA)
RNA: B6 RNA with G25U, C27G, U28G, G29A, U30C
DNA 1: CAATCTGAATTCCGGTCTCCC
DNA 2: TGGTGGCTACGACGGGATT
B8: UGACAAG (DNA:RNA)
RNA: B1 RNA with C25U
DNA 1: CAATCTGAATTCCGGTCTCCC
DNA 2: TGGTGGCTACGACGGGATT
B9: GCACAGC (DNA:RNA)
RNA: B1 RNA with C25G, G26C, A30G, G31C
DNA 1: CAATCTGAATTCCGGTCTCCC
DNA 2: TGGTGGCTACGACGGGATT
B10: ACGGAGA (DNA:RNA)
RNA: B6 RNA with G25A, C27G, U28G, G29A, U30G
DNA 1: CAATCTGAATTCCGGTCTCCC
DNA 2: TGGTGGCTACGACGGGATT
B11: CUAUCAC (DNA:RNA)
RNA: B1 RNA with G26U, C28U, A29C, G31C
DNA 1: CAATCTGAATTCCGGTCTCCC
DNA 2: TGGTGGCTACGACGGGATT
B12: UCAGACU (DNA:RNA)
RNA: B1 RNA with C25U, G26C, C28G, A30C, G31U
DNA 1: CAATCTGAATTCCGGTCTCCC
DNA 2: TGGTGGCTACGACGGGATT
B13: AGCACUA (DNA:RNA)
RNA: B6 RNA with G25A, C26G, U28A, G29C
DNA 1: CAATCTGAATTCCGGTCTCCC
DNA 2: TGGTGGCTACGACGGGATT
B14: UCACCUU (DNA:RNA)
RNA: B1 RNA with C25U, G26C, A29C, A30U, G31U
DNA 1: CAATCTGAATTCCGGTCTCCC
DNA 2: TGGTGGCTACGACGGGATT
B15: ACUGGUA (DNA:RNA)
RNA: B6 RNA with G25A, C27U, U28G
DNA 1: CAATCTGAATTCCGGTCTCCC
DNA 2: TGGTGGCTACGACGGGATT
B16: GGACUAU (DNA:RNA)
RNA: B1 RNA with C25G, A29U, G31U
DNA 1: CAATCTGAATTCCGGTCTCCC
DNA 2: TGGTGGCTACGACGGGATT
B17: CACAGGG (DNA:RNA)
RNA: B1 RNA with G26A, A27C, C28A, A29G, A30G
DNA 1: CAATCTGAATTCCGGTCTCCC
DNA 2: TGGTGGCTACGACGGGATT
B18: GACGGAA (DNA:RNA)
RNA: B6 RNA with C26A, U28G, U30A
DNA 1: CAATCTGAATTCCGGTCTCCC
DNA 2: TGGTGGCTACGACGGGATT
B19: GUAUGUA (DNA:RNA)
RNA: B6 RNA with C26U, C27A
DNA 1: CAATCTGAATTCCGGTCTCCC
DNA 2: TGGTGGCTACGACGGGATT
B20: AUACCCU (DNA:RNA)
RNA: B1 RNA with C25A, G26U, A29C, A30C, G31U
DNA 1: CAATCTGAATTCCGGTCTCCC
DNA 2: TGGTGGCTACGACGGGATT

molecular target: T1, RBFOX1 RRM (Homo sapiens, UniProt Q9NWB1 109-208); test: EMSA; HiTS-Eq, 1 nM pool, 10 min; buffer printed only for the single-RNA assays: 10 mM Tris pH 7.5, 150 mM NaCl, 3.4 mM EDTA, 0.001% NP-40, 30 C; conditions: tags: His6 N-terminal (pET28a); label: 5' 32P
T1 sequence: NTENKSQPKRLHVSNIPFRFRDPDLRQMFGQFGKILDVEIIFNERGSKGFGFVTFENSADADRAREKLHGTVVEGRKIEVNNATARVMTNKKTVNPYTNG
Outline: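 Relative association constants, normalised to the cognate motif, were derived by comparing read counts of each RNA species with those of the control reaction. The RNA sequenced was the free fraction, separated by 8% native PAGE after a 10 min equilibration in 50 µL of 1 nM 5′-radiolabelled RNA (7 randomized nucleotides) with increasing concentrations of purified wild-type or mutant RbFox RRM.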

Binder | binding signal
B1 | 0.00637 KA relative to UGCAUGU
B2 | 0.00987 KA relative to UGCAUGU
B3 | 0.00723 KA relative to UGCAUGU
B4 | 0.00195 KA relative to UGCAUGU
B5 | 0.0107 KA relative to UGCAUGU
B6 | 0.0203 KA relative to UGCAUGU
B7 | 0.00225 KA relative to UGCAUGU
B8 | 0.0143 KA relative to UGCAUGU
B9 | 0.00984 KA relative to UGCAUGU
B10 | 0.00666 KA relative to UGCAUGU
B11 | 0.00478 KA relative to UGCAUGU
B12 | 0.00739 KA relative to UGCAUGU
B13 | 0.0018 KA relative to UGCAUGU
B14 | 0.00586 KA relative to UGCAUGU
B15 | 0.0157 KA relative to UGCAUGU
B16 | 0.0123 KA relative to UGCAUGU
B17 | 0.00471 KA relative to UGCAUGU
B18 | 0.0162 KA relative to UGCAUGU
B19 | 0.0125 KA relative to UGCAUGU
B20 | 0.000968 KA relative to UGCAUGU
